# In the supplement of paper PMC11417369:
# This is one part of the list.
# Tested on: PfHDP1 homeodomain (GST-tagged)
# Assay: gcPBM binding intensity (ln(normalized median fluorescence intensity)); higher = stronger DNA binding
# In short: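 DNA-binding domains from P. falciparum, fused to GST and produced in E. coli, were put on an Agilent 4 × 180k double-stranded probe array for 1 h in 1× PBS holding 1% milk, 0.2 mg/ml BSA, 0.5% salmon testes DNA and 0.03% Triton X-100. Probes were primer-extended, 36 bp long and drawn from intergenic genomic regions, with negative controls included. After Alexa488 anti-GST antibody detection and a 488 nm scan, binding intensity was set as the highest Masliner-normalised natural-log median intensity across replicate spots of either probe orientation.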
row,Sequence,gcPBM binding intensity (ln)
1,AAAAAAAAAAAACATACACACAAATATATACATACA [CACACA_site4011],6.44
2,TAATTTTATATTAAAAGTACATAATAAAAACTATAA [XGTACX_site8779],6.26
3,AAGAAATATATATATATATATATATATATATATGTA [TGCATGCA_negctrl_site442],7.43
4,TACATACACGGACACACACACATATATATATATATA [CACACA_site5883],9.41
5,CACTAATATATATACAGTACATAATAAAGTATATAA [XGTACX_site6875],6.16
6,TGATGATATAAAAACACACACATATAATATAATACT [CACACA_site1208],6.78
7,AGAGCATAATAAAACACACACATACATACAGATATA [CACACA_site4671],8.56
8,TTTAAAAACAAATATTGTACAAATTAAAATATATCA [XGTACX_site7220],6.81
9,CATATAGTATAAATTTGTACATAAATATATATATAT [XGTACX_site7477],8.91
10,AGAGTATATAAAGTAACACACAATAAAATAAAATAA [CACACA_site2328],6.71
11,AAATGATGCATTTGTCATTAAAATTGTGAAATATTA [CACACA_negctrl_site231],6.58
12,AAAAAAAAAAAAAAAAGTACATATATATATAATTAT [XGTACX_site7836],6.43
13,ATAATATCTTCTTTTTTTTTTTTTTTTTTTTTTTTT [CACACA_negctrl_site1005],7.01
14,TATAATAAAATATGTACACACATACAGACATATATA [CACACA_site6693],6.6
15,TAATTAAGATGATAAAAATTGAAAAAACAATTTTAA [CACACA_negctrl_site658],5.68
16,ATATATATATAATGTGTACACACATATGTATTTATA [CACACA_site8170],8.5
17,TAAGAAATAAATAGTACACACATAGACACACGCACA [CACACA_site6821],7.13
18,AATATAACTTAGAATTGTACATAAAAAAAAATATAT [XGTACX_site3313],6.49
19,TACCTAATATGTTATACACACATTATAAGTACATAT [CACACA_site7206],7.02
20,GTGTGATGGTACAATATACACACTTAAAAAAAAAAA [CACACA_site8769],6.33
21,AGTTATATGGTTAATACACACAACAAATGTTTCTTC [CACACA_site6642],6.58
22,AAAAAATATATTTGCACACTCAAAAAAAAAAAAAAA [CACACA_site859],10.3
23,ATACATAAAATTAAAACACACATTTTATTAAATACG [CACACA_site2167],6.44
24,ATACATATATATATATGTACACATAAACATGAGTGA [XGTACX_site3200],6.62
25,TAATGGAAACCATTTATTTTCTGCAATATATTTTTT [CACACA_negctrl_site1653],5.62
26,TTCAAAAAATAAAATAATAATATATATATAAATATA [XGTACX_negctrl_site84],6.32
27,TCATTAAAGGAAAAATGTACGTATAAATAAATATAT [XGTACX_site2587],6.49
28,TGTGTTTATACGTTTTGTACATATTTTTATTTTGTA [XGTACX_site6425],6.74

row,Sequence,gcPBM binding intensity (ln)
1,TTTACATCAACCTTTTCACACATTCATATACAGATA [CACACA_site6152],7.15
2,TTTTTTATATTTAAACTTCACATGGTTTTCATTTAT [XGTACX_negctrl_site291],6.47
3,ATATGAAATATATAAATATGTTTATATATATATATA [GTGCAC_negctrl_site94],9.06
4,TATAAAATACATTTATAATATATATATATATTTTTT [TGCATGCA_negctrl_site435],6.19
5,AATGTAAAATATAAATGTACATATATATATATATAT [XGTACX_site5071],9.34
6,ATTTATTTATACAAAGTGCAATATTTTGTTAAAGTC [GTGCAC_site9618],8.15
7,AAACAAAATATGGTTCATGAGCAAAAGTTTATTTTG [XGTACX_negctrl_site531],8.18
8,CTCTTTTCTTATAATACACACAGTAATATATATATA [CACACA_site1520],8.38
9,ATAAATCTACACCGCACACAAAAACAACAAATATTA [CACACA_site5396],7.05
10,AATGAATATATATAAATATATATATATATATATATA [CACACA_negctrl_site1494],9.32
11,ATATTTGTATAAATTGCACACTTTATTTTTTTTAAG [CACACA_site1558],9.86
12,ATGTTATTACATAATTGTACATTTTGAGCAATTAAG [XGTACX_site4640],9.33
13,AAACGTAACATATATATATATATATATAAGATATAT [CACACA_negctrl_site126],7.32
14,AAAAGAATAATAATTTATGTATATTAATTAAAGAAT [XGTACX_negctrl_site402],6.44
15,TTATATATATGTGTATGTACATATATATATATATAT [XGTACX_site1141],9.21
16,TATCATATATTATATGCACACATGTTTTTCAAGAAT [CACACA_site1892],9.65
17,TATATAATATTCTACACACCAACAACAAACATATAT [CACACA_site567],7.03
18,ATATATATATTTATATGTACATAATATAAAATTTCT [XGTACX_site3720],7.7
19,ATATTCTGATTTTAGATGCACTTCGTTAACAAAATA [GTGCAC_site9958],7.22
20,ATAAGATGATTAATTACACACTTTATAGGATATTTA [CACACA_site1711],6.25
21,GGTATATGCATAAAGAGTACGTAACTTCTTTTTGTT [XGTACX_site6344],7
22,AAATGTGTAAATATAATTAGTTTCACAAAACAAATA [GTGCAC_negctrl_site543],6.15
23,TATTTATTATTATGTACACACTATATTAAAACATAA [CACACA_site4549],6.57
24,TATGTGAATCCTAAGTGTACACATCTTACATATATA [XGTACX_site2506],7.05
25,AGTATACGCAGACACACACACACATATATATATATA [CACACA_site1735],9.19
26,TTAGCTTTTTTTTAAACATGCAACTACTTGATCCAC [TGCATGCA_site1017],6.56
27,TTTTTTTTTTTTTCTTCACACACAGTACTACTATTT [CACACA_site8759],6.43
